Reference: paper PMC4336329 (PLoS ONE, 2015)
Hit rate of the full screen: of about 310,000 compounds, about 14,000 (4.5%) showed an effect of 50% or more. The effect is printed as a negative number. Some of the results follow.

Each compound was assayed against human ether-à-go-go-related gene (hERG) potassium channel (human, UniProt Q12809) (assay: primary screen, population patch clamp on CHO cells stably expressing hERG).
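Note: peak tail current of the secondary pulse compared with the same well before compound.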

Chain of human ether-à-go-go-related gene (hERG) potassium channel (Q12809 whole entry, looked up): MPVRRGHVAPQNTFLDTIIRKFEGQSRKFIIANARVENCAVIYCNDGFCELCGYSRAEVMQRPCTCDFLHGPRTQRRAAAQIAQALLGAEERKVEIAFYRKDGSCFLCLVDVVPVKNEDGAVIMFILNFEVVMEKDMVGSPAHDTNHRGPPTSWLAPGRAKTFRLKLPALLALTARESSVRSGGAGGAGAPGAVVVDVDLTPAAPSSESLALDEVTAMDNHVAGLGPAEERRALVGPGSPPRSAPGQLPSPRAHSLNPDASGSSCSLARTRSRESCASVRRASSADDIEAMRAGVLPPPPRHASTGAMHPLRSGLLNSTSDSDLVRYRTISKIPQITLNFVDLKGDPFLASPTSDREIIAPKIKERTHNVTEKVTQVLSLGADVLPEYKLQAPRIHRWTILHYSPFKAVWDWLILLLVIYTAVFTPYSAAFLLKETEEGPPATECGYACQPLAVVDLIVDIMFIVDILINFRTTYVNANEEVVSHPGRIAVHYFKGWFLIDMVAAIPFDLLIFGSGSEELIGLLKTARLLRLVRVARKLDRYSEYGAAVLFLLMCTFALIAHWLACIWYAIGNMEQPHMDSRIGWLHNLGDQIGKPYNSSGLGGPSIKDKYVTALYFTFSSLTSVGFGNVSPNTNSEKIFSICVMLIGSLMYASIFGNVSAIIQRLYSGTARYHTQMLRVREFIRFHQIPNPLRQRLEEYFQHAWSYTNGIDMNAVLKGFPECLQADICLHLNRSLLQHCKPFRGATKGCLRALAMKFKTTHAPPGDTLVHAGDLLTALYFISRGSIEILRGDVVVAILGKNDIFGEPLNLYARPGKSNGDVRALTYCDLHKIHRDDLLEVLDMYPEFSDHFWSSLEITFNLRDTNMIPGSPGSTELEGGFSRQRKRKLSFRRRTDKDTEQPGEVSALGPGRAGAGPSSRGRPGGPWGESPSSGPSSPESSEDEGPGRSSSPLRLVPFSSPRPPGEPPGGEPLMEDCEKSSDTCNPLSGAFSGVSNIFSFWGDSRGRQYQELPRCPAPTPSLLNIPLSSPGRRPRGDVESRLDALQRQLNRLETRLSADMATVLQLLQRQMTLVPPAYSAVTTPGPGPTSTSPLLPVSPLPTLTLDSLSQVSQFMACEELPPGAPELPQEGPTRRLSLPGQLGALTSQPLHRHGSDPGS

Row | Structure (SMILES) | hERG current change (%, negative = inhibition) at 10uM
1 | CCN(CC(=O)NCc1cccs1)S(=O)(=O)c1ccc([N+](=O)[O-])cc1 | -68.2%
2 | CC(=O)N1CCN(c2ccc(Oc3ncnc4sccc34)cc2)CC1 | -0.203%
3 | CC(=O)c1cccc(NC(=O)C(C)N2CCc3ccccc3C2)c1 (centres unmarked) | 4.43%
4 | O=C(c1ccc(-c2nnc(Nc3cccc(Cl)c3)c3ccccc23)cc1)N1C[C@H]2C[C@H](C1)c1cccc(=O)n1C2 | -7.75%
5 | CCOC(=O)NC(=O)COC(=O)CCCc1nc2ccccc2s1 | -4.56%
6 | COC(=O)CCC(=O)N(C)CC1CCCN(CCc2cccc(C(F)(F)F)c2)C1 (centres unmarked) | -61.9%
7 | Cc1cc(C(C)(C)C)cc(C)c1C(=O)O | 0.0126%
8 | CCCc1nnc(NS(=O)(=O)c2ccccc2)s1 | 14.5%
9 | COC(=O)Nc1ccc(S(=O)(=O)n2cnc3ccccc32)cc1 | -4.93%
10 | Cc1cc(C(=O)N/N=C/c2cccc3ccccc23)c(C)o1 | 7.15%
11 | O=C(NC1CC2CCC1C2)C1COc2ccccc2O1 (centres unmarked) | -8.46%
12 | O=C(N/N=C/c1cccnc1)c1ccco1 | 13%
13 | O=S(=O)(NC1CCCC1)c1ccccc1Cl | -17%
14 | Cc1ccc(S(=O)(=O)NCC(=O)N(CC(=O)NCc2ccco2)Cc2ccccc2)cc1 | -10.2%
15 | CCOc1ccc(-n2ccnc2SCC(=O)N2CCCc3ccccc32)cc1 | -13.7%
16 | Cc1ccc(NC(=S)N2CCC(C(N)=O)(N3CCCCC3)CC2)c(C)c1 | 4.19%
17 | O=C(Nc1cc(S(=O)(=O)N2CCOCC2)ccc1N1CCCC1)c1cnccn1 | -4.43%
18 | COCCn1c(-c2ccc(-c3ccc([N+](=O)[O-])cc3Br)o2)nc2c1c(=O)[nH]c(=O)n2CC(C)C | -4.7%
19 | CC(N=C1NS(=O)(=O)c2ccccc21)C(=O)NCc1ccc2c(c1)OCO2 (centres unmarked) | 8.21%
20 | O=C(NC1CCc2ccccc21)c1cc(COc2ccc(F)cc2Cl)on1 (centres unmarked) | 8.94%
21 | Cc1cc(C)nc(SCC(=O)N/N=C/c2cccc([N+](=O)[O-])c2)n1 | -0.792%
22 | CCCCCOc1ccc(CSC(=N)N)cc1[N+](=O)[O-].Cl | -56.7%

Row | Structure (SMILES) | hERG current change (%, negative = inhibition) at 10uM
23 | COc1ccc(-c2c(-c3ccc(OC)cc3O)nc(C)nc2C(F)(F)F)cc1 | -6.07%
24 | Cn1c(C(=O)Nc2ccc3c(c2)OCO3)cc2sccc21 | -2.75%
25 | COC(=O)Cc1ccc(NC(=S)NCCSc2ccc(Cl)cc2)cc1 | -8.33%
26 | COc1ccc(OC)c(NC(=O)Cn2c(C)nc3ccccc3c2=O)c1 | 6.9%
27 | Cn1c2[n+](c3ccc(Cl)cc3c1=O)Cc1ccccc1-2.[Cl-] | -12.8%
28 | COCCNC(=O)c1c(N)n(/N=C/c2ccc(F)cc2)c2nc3ccccc3nc12 | -0.595%
29 | O=C(CS(=O)CC(=O)NC12CC3CC(CC(C3)C1)C2)Nc1ccc(F)cc1 (centres unmarked) | -6.85%
30 | COc1cccc(-n2c(Cc3cc(=O)[nH]c(=O)[nH]3)nnc2SCC(=O)N2CCCCC2)c1 | 8.75%
31 | COc1ccccc1C(=O)NC(CCSC)C(=O)OCC(=O)N1CCCC1=O (centres unmarked) | 8.9%
32 | CCC1(CC)C(=O)C2=C3C1[C@H](C(=O)OC)C=C(C(=O)OC)C[C@H]3n1c(=O)n(-c3ccccc3)c(=O)n1[C@H]2C (some centres unmarked) | -2.64%
33 | CC(=O)c1ccc(S(=O)(=O)N2CCN(C(C)=O)CC2)cc1 | 11%
34 | O=C(CCNC(=O)c1ccccc1Cl)Nc1cccc(S(=O)(=O)N2CCCC2)c1 | -1.76%
35 | COc1cccc(CNC(=O)C2CCCN(S(=O)(=O)c3c(C)n[nH]c3C)C2)c1 (centres unmarked) | -4.5%
36 | O=C(O)C(=O)O.c1ccc(-c2cnc(SCCN3CCOCC3)n2CC2CCCO2)cc1 (centres unmarked) | -0.604%
37 | COc1ccc(N2CCN(CCc3ccncc3)CC2)cc1 | -38%
38 | O=C(COC(=O)CCc1nc2ccccc2c(=O)[nH]1)NC(c1ccccc1)c1ccccc1 | 5.31%
39 | COc1cccc(Nc2nc3ccc(C(=O)c4ccccc4)cc3n3cnnc23)c1 | -1.42%
40 | COc1ccccc1CNC(=O)CSCc1cnn(-c2ccccc2)c1-n1cccc1 | -17%
41 | O=C(CCc1nc(-c2ccccc2)c(-c2ccccc2)o1)OCc1ccc(Cl)cc1 | 17.4%
42 | CC(C)(C)C(=O)c1cn(Cc2ccccc2)c2ccccc12 | -4.12%
43 | CCN(CC)S(=O)(=O)c1ccc(S(=O)(=O)N2CCN(CCC#N)CC2)cc1 | 8.45%
44 | CCOc1ccc(NC(=O)CCc2c(C)nn(-c3ccc(N4CCCCC4)nn3)c2C)cc1 | 13.4%
